Laboratory results from the RNAGym collection of RNA variant scans (doi:10.1093/nar/gkz1192).
The source gives no read counts; variants with many changes may rest on few reads.

B1: CPEB3 Ribozyme (parent)
chain: UAACAGGGGGCCACAGCAGAAGCGUUCACGUCGCAGCCCCUGUCAGAUUCUGGUGAAUCUGCGAAUUCUGCUGUAUAUCUC

Variants of: B1
Experiment: self-cleavage, relative activity (ratio to wild type); higher = more cleavage; in vitro, sequencing
Procedure, shortened: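 Relative activity compares each variant's cleaved/total read fraction with that of the unmutated ribozyme. To get these fractions, barcoded CPEB3 ribozyme libraries from rounds of error-prone PCR were transcribed with T7 RNA polymerase for 5 hours at 37°C and then given 15 min of DNase I treatment before EDTA was added. The RNAs were reverse transcribed with template switching and sequenced on Illumina, and DNA sequencing linked barcodes to variants. A minimum of 5 reads applied, and three batches were averaged.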

Row | Variant | self-cleavage
1 | U41C U60C U69C | 0.41
2 | U41C U66A U72C U78C | 0.47
3 | U41C U66A U74A | 0.86
4 | U41C U66C G70U | 0.25
5 | U41C U66C U67G | 0.22
6 | U41C U66C U72A | 0.4
7 | U41C U66C U76C | 0
8 | U41C U66G U76C U80C | 0.17
9 | U41C U67A U80A | 0.64
10 | U41C U67C A77G | 0.51
11 | U41C U67C A77U | 0.24
12 | U41C U69A U80C | 0.48
13 | U41C U69C G73U | 0.78
14 | U41C U69G U74A | 0.82
15 | U41C U72C A75G | 1.21
16 | U41C U72C A77G | 1.22
17 | U41C U72C U74C | 1.31
18 | U41C U72G U80A | 1.26
19 | U41C U74A A75G | 1.22
20 | U41C U74C A77G | 1.27
21 | U41C U74C C79A | 1.28

Row | Variant | self-cleavage
22 | U41C U74C U78C | 1.19
23 | U41C U76C U78C | 1.13
24 | U41C U76C U80A | 1.22
25 | U41C U76C U80G | 1.16
26 | U41C U78C C79G | 1.07
27 | U41C U78G U80C | 1.08
28 | U41G A45G U60G | 0.28
29 | U41G A56G A57G U69C | 0.27
30 | U41G A56G G73A | 0.3
31 | U41G A56G U58C A64U U76C | 0.07
32 | U41G A56G U74C | 0.16
33 | U41G A57G A77G | 0.11
34 | U41G A57G U58A U74A | 0.17
35 | U41G A57G U58C | 0.11
36 | U41G A64G A65U U66A | 0.12
37 | U41G A64G U72A | 0.05
38 | U41G A64G U80G | 0.17
39 | U41G A65U U67G | 0.17
40 | U41G C68A U69A | 0.27
41 | U41G G52A A77U | 0.1
42 | U41G G61A A77U | 0.33

Row | Variant | self-cleavage
43 | U41G U43C A65G U67C | 0.37
44 | U41G U43C U49C U67C | 0.1
45 | U41G U43C U78C | 0.23
46 | U41G U48A U51C U67C | 0.37
47 | U41G U48C A56G U78C | 0.19
48 | U41G U49C U51A | 0.44
49 | U41G U49C U54C U69A | 0.15
50 | U41G U51A A77U | 0.11
51 | U41G U51A U72A | 0.4
52 | U41G U51A U78C | 0.27
53 | U41G U51C G53A A56G U60A U69C A75G | 0.06
54 | U41G U51C U69A | 0.35
55 | U41G U54A A56G A65C U76C | 0.09
56 | U41G U54A U80C | 0.55
57 | U41G U54C G63U A65G | 0.15
58 | U41G U54C U72C | 0.24
59 | U41G U54G A56U A65G U69A | 0.06
60 | U41G U60A U66C | 0.12
61 | U41G U60A U76A | 0.22
62 | U41G U60C A64G U80C | 0.44
63 | U41G U66A U76A | 0.09

Row | Variant | self-cleavage
64 | G42A A45C U54G | 0.11
65 | G42A A45C U72A | 0.07
66 | G42A A45G A57G A75U U78G | 0.09
67 | G42A A45G U48A U60C U69C | 0.09
68 | G42A A45G U67C | 0.18
69 | G42A A47G U78C | 0.21
70 | G42A A64C A65G | 0.08
71 | G42A A64G C71A | 0.15
72 | G42A A64U U72C | 0.37
73 | G42A A65G U67G | 0.12
74 | G42A U43C U49C U67C U69A | 0.05
75 | G42A U49A G53U | 0.33
76 | G42A U49C A57G | 0.1
77 | G42A U49C U72A | 0.11
78 | G42A U54A U76A | 0.4
79 | G42A U54C A56G U69A | 0.42
80 | G42A U54C A56U | 0.54
81 | G42A U54C A64G U66A A77G | 0.08
82 | G42A U54C C62U | 0.14
83 | G42A U54C U78C | 0.25
84 | G42A U58C U76C | 0.23
